Measurements reported in patent US20240329043A1, “METHOD FOR STRATIFICATION AND TREATMENT OF MULTIPLE SCLEROSIS” (Universität Zurich, priority 2021, published 2024).

Tested on: CSF-infiltrating CD4+ T cells from MS patients
Settings: peptide 10 μM; 105 MS patients; patient positive if mean IFN-γ ≥20 pg/ml and at least 3 of 4 wells positive

| Sequence | Positive patients % IFNγ release [%] |
| --- | --- |
| YGCTFTAVIPTNVFG (listed as Homo sapiens) [GDP-L-FS (161-175)] | 5.71 |
| LSRFSWGAEGQRPGFGYGG (listed as Homo sapiens) [MBP (111-129)] | 4.76 |
| HCLGKWLGHPDKFVGI (listed as Homo sapiens) [PLP (139-154)] | 3.80 |
| FRFTPFKQAVKETCA (listed as Homo sapiens) [GDP-L-FS (296-310)] | 11.42 |
| GQFRVIGPRHPIRALVGDEV (listed as Homo sapiens) [MOG (1-20)] | 1.90 |
| TAQTRALFEKVQPTH (listed as Homo sapiens) [GDP-L-FS (51-65)] | 5.71 |
| PHNSNFGYSYAKRMI (listed as Homo sapiens) [GDP-L-FS (136-150)] | 7.62 |
| MEVGWYRPPFSRVVHLYRNGK (listed as Homo sapiens) [MOG (35-55)] | 12.38 |
| EEDEVSIKEAAEAVV (listed as Homo sapiens) [GDP-L-FS (246-260)] | 8.57 |
| AQGTLSKIFKLGGRDSRSGSPMARR (listed as Homo sapiens) [MBP (146-170)] | 2.85 |
| KYLATASTMDHARHGFLPRH (listed as Homo sapiens) [MBP (13-32)] | 1.90 |
